Assay results as given in the supplement of paper PMC12217912.
The list shows a part of the results. The full chains were built here from the parent and the listed change. Inactive controls read about 0.05.

B1: TEV protease; numbered along this chain (parent)
chain: MGESLFKGPRDYNPISSSICHLTNESDGHTTSLYGIGFGPFIITNKHLFRRNNGTLVVQSLHGVFKVKDTTTLQQHLVDGRDMIIIRMPKDFPPFPQKLKFREPQREERICLVTTNFQTKSMSSMVSDTSCTFPSGDGIFWKHWIQTKDGQCGSPLVSTRDGFIVGIHSASNFTNTNNYFTSVPKNFMELLTNQEAQQWVSGWRLNADSVLWGGHKVFMVKPEEPFQPVKEATQL

Variants of: B1
Assay: raw area under fraction-flipped curve 0-4 h after induction (AUC4h, not background-subtracted), DNA-recorder readout of cleavage of the substrate (dimensionless); higher = more cleavage of the substrate by the protease variant
Details: temperature: 34 °C; time window: 0-4 h after rhamnose induction
Description: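 In vivo DNA recorder in E. coli TOP10(DE3) ΔrhaA at 34 °C. Each TEVp single-site mutant (parent TEVp 0) is paired with a single-site variant of the 7-mer TEVs (canonical ENLYFQ|S). The substrate sits between flexible linkers in a Bxb1-sfGFP-TEVs-SsrA fusion, so cleavage stabilises Bxb1 and speeds flipping of a recombination array, read by NGS. The value is the raw area under the fraction-flipped curve over 0-4 h after rhamnose induction (AUC4h), with ≥20 reads per time point. It is not background-subtracted; inactive controls average about 0.047.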
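Further: Bxb1 expression induced with 0.2% (w/v) L-rhamnose at OD600 near 0.5, cultures sampled hourly, flipped fraction per protease–substrate barcode pair counted by paired-end Illumina sequencing.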

Variant	area with substrate ENLDFQS	area with substrate ENLFFQS	area with substrate ENLGFQS	area with substrate ENLHFQS	area with substrate ENLNFQS	area with substrate ENLPFQS	area with substrate ENLRFQS	area with substrate ENLSFQS	area with substrate ENLTFQS	area with substrate ENLVFQS	area with substrate ENLWFQS	area with substrate ENLIFQS	area with substrate ENLKFQS	area with substrate ENLMFQS	area with substrate ENLQFQS	area with substrate ENLEFQS	area with substrate ENLLFQS
MGESLFKGPRDYNPISSSICHLTNESDGHTTSLYGIGFGPFIITNKHLFRRNNGTLVVQSLHGVFKVKDTTTLQQHLVDGRDMIIIRMPKDFPPFPQKLKFREPQREERICLVTTNFQTKSMSSMVSDTSCTFPSGDGIFWKHWIQTKDGQCDSPLVSTRDGFIVGIHSASNFTNTNNYFTSVPKNFMELLTNQEAQQWVSGWRLNADSVLWGGHKVFMVKPEEPFQPVKEATQL [G153D]	0.0787	0.0513	0.0357	0.0519	0.0612	0.0646	0.0612	0.0498	0.0396	0.0593	0.0401						
MGESLFKGPRDYNPISSSICHLTNESDGHTTSLYGIGFGPFIITNKHLFRRNNGTLVVQSLHGVFKVKDTTTLQQHLVDGRDMIIIRMPKDFPPFPQKLKFREPQREERICLVTTNFQTKSMSSMVSDRSCTFPSGDGIFWKHWIQTKDGQCGSPLVSTRDGFIVGIHSASNFTNTNNYFTSVPKNFMELLTNQEAQQWVSGWRLNADSVLWGGHKVFMVKPEEPFQPVKEATQL [T129R]	0.0774	0.0958					0.0776	0.0507			0.0977	0.0928	0.07	0.078	0.07		
MGESLFKGPRDYNPISSSICHLTNESDGHTTSLYGIGFGPFIITNKHLFRRNNGTLVVQSLHGVFKVKDTTTLQQHLVDGRDMIIIRMPKDFPPFPQKLKFREPQREERICLVTTNFQTKSMSSMVSDASCTFPSGDGIFWKHWIQTKDGQCGSPLVSTRDGFIVGIHSASNFTNTNNYFTSVPKNFMELLTNQEAQQWVSGWRLNADSVLWGGHKVFMVKPEEPFQPVKEATQL [T129A]	0.0729	0.0998	0.0695	0.0536						0.081		0.0758	0.0573		0.054	0.0708	
MGESLFKGPRDYNPISSSICHLTNESDGHTTSLYGIGFGPFIITNKHLFRRNNGTLVVQSLHGVFKVKDTTTLQQHLVDGRDMIIIRMPKDFPPFPQKLKFREPQRDERICLVTTNFQTKSMSSMVSDTSCTFPSGDGIFWKHWIQTKDGQCGSPLVSTRDGFIVGIHSASNFTNTNNYFTSVPKNFMELLTNQEAQQWVSGWRLNADSVLWGGHKVFMVKPEEPFQPVKEATQL [E107D]	0.0602	0.0685		0.0776	0.0553	0.0651		0.0633			0.0638	0.0862	0.0913		0.0723		0.0527
MGESLFKGPRDYNPISSSICHLTNESDGHTTSLYGIGFGPFIITNKHLFRRNNGTLVVQSLHGVFKVKDTTTLQQHLVDGRDMIIIRMPKDFPPFPQKLKFREPQREERICLVTTNFQTKSMSSMVSDTSCTFPSGDGIFWKHWIQTKDGQCGSPLCSTRDGFIVGIHSASNFTNTNNYFTSVPKNFMELLTNQEAQQWVSGWRLNADSVLWGGHKVFMVKPEEPFQPVKEATQL [V157C]	0.0476	0.0772		0.0641	0.0627	0.0572	0.076	0.0415		0.0581			0.0807			0.0586	0.0866
MGESLFKGPRDYNPISSSICHLTNESDGHTTSLYGIGFGPFIITNKHLFRRNNGTLVVQSLHGVFKVKDTTTLQQHLVDGRDMIIIRMPKDFPPFPQKLKFREPQREERICLETTNFQTKSMSSMVSDTSCTFPSGDGIFWKHWIQTKDGQCGSPLVSTRDGFIVGIHSASNFTNTNNYFTSVPKNFMELLTNQEAQQWVSGWRLNADSVLWGGHKVFMVKPEEPFQPVKEATQL [V113E]	0.0703	0.0584					0.0583						0.0839				0.0495
MGESLFKGPRDYNPISSSICHLTNESDGHTTSLYGIGFGPFIITNKHLFRRNNGTLVVQSLHGVFKVKDTTTLQQHLVDGRDMIIIRMPKDFPPFPQKLKFREPQREERICLVTTNFQTKSMSSMVSDTTCTFPSGDGIFWKHWIQTKDGQCGSPLVSTRDGFIVGIHSASNFTNTNNYFTSVPKNFMELLTNQEAQQWVSGWRLNADSVLWGGHKVFMVKPEEPFQPVKEATQL [S130T]	0.064	0.0947		0.0689		0.0691						0.0999	0.0851				
MGESLFKGPRDYNPISSSICHLTNESDGHTTSLYGIGFGPFIITNKHLFRRNNGTLVVQSLHGVFKVKDTTTLQQHLVDGRDMIIIRMPKDFPPFPQKLKFREPQREERIELVTTNFQTKSMSSMVSDTSCTFPSGDGIFWKHWIQTKDGQCGSPLVSTRDGFIVGIHSASNFTNTNNYFTSVPKNFMELLTNQEAQQWVSGWRLNADSVLWGGHKVFMVKPEEPFQPVKEATQL [C111E]	0.0495				0.0673	0.0657						0.0885				0.0696	
MGESLFKGPRDYNPISSSICHLTNESDGHTTSLYGIGFGPFIITNKHLFRRNNGTLVVQSLHGVFKVKDTTTLQQHLVDGRDMIIIRMPKDFPPFPQKLKFREPQREERICLVTTNFQTKNMSSMVSDTSCTFPSGDGIFWKHWIQTKDGQCGSPLVSTRDGFIVGIHSASNFTNTNNYFTSVPKNFMELLTNQEAQQWVSGWRLNADSVLWGGHKVFMVKPEEPFQPVKEATQL [S121N]	0.0427	0.0794		0.0611		0.0614	0.0786	0.0526			0.0723	0.0738	0.0823			0.0687	0.0705
MGESLFKGPRDYNPISSSICHLTNESDGHTTSLYGIGFGPFIITNKHLFRRNNGTLVVQSLHGVFKVKDTTTLQQHLVDGRDMIIIRMPKDFPPFPQKLKFREPQREERICLVTTIFQTKSMSSMVSDTSCTFPSGDGIFWKHWIQTKDGQCGSPLVSTRDGFIVGIHSASNFTNTNNYFTSVPKNFMELLTNQEAQQWVSGWRLNADSVLWGGHKVFMVKPEEPFQPVKEATQL [N116I]	0.0666			0.0644			0.0742						0.0737	0.0991			0.0836
MGESLFKGPRDYNPISSSICHLTNESDGHTTSLYGIGFGPFIITNKHLFRRNNGTLVVQSLHGVFKVKDTTTLQQHLVDGRDMIIIRMPKDFPPFPQKLKFREPQREENICLVTTNFQTKSMSSMVSDTSCTFPSGDGIFWKHWIQTKDGQCGSPLVSTRDGFIVGIHSASNFTNTNNYFTSVPKNFMELLTNQEAQQWVSGWRLNADSVLWGGHKVFMVKPEEPFQPVKEATQL [R109N]	0.0607	0.092			0.0738	0.0654	0.0831				0.0732		0.0573			0.0609	
MGESLFKGPRDYNPISSSICHLTNESDGHTTSLYGIGFGPFIITNKHLFRRNNGTLVVQSLHGVFKVKDTTTLQQHLVDGRDMIIIRMPKDFPPFPQKLKFREPQREEAICLVTTNFQTKSMSSMVSDTSCTFPSGDGIFWKHWIQTKDGQCGSPLVSTRDGFIVGIHSASNFTNTNNYFTSVPKNFMELLTNQEAQQWVSGWRLNADSVLWGGHKVFMVKPEEPFQPVKEATQL [R109A]	0.065			0.0721	0.0671							0.119	0.112		0.0499	0.0498	0.0715
MGESLFKGPRDYNPISSSICHLTNESDGHTTSLYGIGFGPFIITNKHLFRRNNGTLVVQSLHGVFKVKDTTTLQQHLVDGRDMIIIRMPKDFPPFPQKLKFREPQREERICLVTHNFQTKSMSSMVSDTSCTFPSGDGIFWKHWIQTKDGQCGSPLVSTRDGFIVGIHSASNFTNTNNYFTSVPKNFMELLTNQEAQQWVSGWRLNADSVLWGGHKVFMVKPEEPFQPVKEATQL [T115H]	0.0654			0.0585	0.0688	0.0633		0.0663		0.0824		0.097				0.0637	0.074
MGESLFKGPRDYNPISSSICHLTNESDGHTTSLYGIGFGPFIITNKHLFRRNNGTLVVQSLHGVFKVKDTTTLQQHLVDGRDMIIIRMPKDFPPFPQKLKFREPQREERICLVTTNYQTKSMSSMVSDTSCTFPSGDGIFWKHWIQTKDGQCGSPLVSTRDGFIVGIHSASNFTNTNNYFTSVPKNFMELLTNQEAQQWVSGWRLNADSVLWGGHKVFMVKPEEPFQPVKEATQL [F117Y]	0.0604	0.083				0.0692		0.04					0.0741	0.0734	0.0792	0.054	0.0649
MGESLFKGPRDYNPISSSICHLTNESDGHTTSLYGIGFGPFIITNKHLFRRNNGTLVVQSLHGVFKVKDTTTLQQHLVDGRDMIIIRMPKDFPPFPQKLKFREPQREERICLVTTNTQTKSMSSMVSDTSCTFPSGDGIFWKHWIQTKDGQCGSPLVSTRDGFIVGIHSASNFTNTNNYFTSVPKNFMELLTNQEAQQWVSGWRLNADSVLWGGHKVFMVKPEEPFQPVKEATQL [F117T]	0.0619		0.0742				0.0778						0.0707				
MGESLFKGPRDYNPISSSICHLTNESDGHTTSLYGIGFGPFIITNKHLFRRNNGTLVVQSLHGVFKVKDTTTLQQHLVDGRDMIIIRMPKDFPPFPQKLKFREPQREERICLVTTNFQTKSMSSMVSDTSCTFPSGDGIFWKSWIQTKDGQCGSPLVSTRDGFIVGIHSASNFTNTNNYFTSVPKNFMELLTNQEAQQWVSGWRLNADSVLWGGHKVFMVKPEEPFQPVKEATQL [H143S]	0.0537	0.085	0.0517		0.0615	0.0535	0.0705		0.0631		0.0625	0.0728	0.0609	0.0706			
MGESLFKGPRDYNPISSSICHLTNESDGHTTSLYGIGFGPFIITNKHLFRRNNGTLVVQSLHGVFKVKDTTTLQQHLVDGRDMIIIRMPKDFPPFPQKLKFREPQREERICLVTTNFQTKSMSSMVSDTSCTFPSGDGIFWKYWIQTKDGQCGSPLVSTRDGFIVGIHSASNFTNTNNYFTSVPKNFMELLTNQEAQQWVSGWRLNADSVLWGGHKVFMVKPEEPFQPVKEATQL [H143Y]	0.0649	0.117			0.0516	0.0533	0.0856	0.0613		0.105	0.065	0.096	0.0983			0.0777	
MGESLFKGPRDYNPISSSICHLTNESDGHTTSLYGIGFGPFIITNKHLFRRNNGTLVVQSLHGVFKVKDTTTLQQHLVDGRDMIIIRMPKDFPPFPQKLKFREPQREERICLVTTNFQTKSMSSMVSDTSCTFPSGDGIFWKHWIQTKDGQCGEPLVSTRDGFIVGIHSASNFTNTNNYFTSVPKNFMELLTNQEAQQWVSGWRLNADSVLWGGHKVFMVKPEEPFQPVKEATQL [S154E]	0.0599		0.06	0.054	0.0466	0.0634	0.0749	0.0417			0.0487	0.0632					
MGESLFKGPRDYNPISSSICHLTNESDGHTTSLYGIGFGPFIITNKHLFRRNNGTLVVQSLHGVFKVKDTTTLQQHLVDGRDMIIIRMPKDFPPFPQKLKFREPQREERICLVTTNFQTKSMSSMVSDTSCTFPSGDGIFWKHWIQTKDSQCGSPLVSTRDGFIVGIHSASNFTNTNNYFTSVPKNFMELLTNQEAQQWVSGWRLNADSVLWGGHKVFMVKPEEPFQPVKEATQL [G150S]	0.0592	0.0597	0.0647	0.0518	0.0625	0.054	0.0668	0.0573		0.0489	0.05	0.0662	0.069		0.0508	0.0568	0.0432
MGESLFKGPRDYNPISSSICHLTNESDGHTTSLYGIGFGPFIITNKHLFRRNNGTLVVQSLHGVFKVKDTTTLQQHLVDGRDMIIIRMPKDFPPFPQKLKFFEPQREERICLVTTNFQTKSMSSMVSDTSCTFPSGDGIFWKHWIQTKDGQCGSPLVSTRDGFIVGIHSASNFTNTNNYFTSVPKNFMELLTNQEAQQWVSGWRLNADSVLWGGHKVFMVKPEEPFQPVKEATQL [R102F]	0.057	0.0297		0.0435	0.0406	0.0339		0.0288		0.0477	0.0661	0.0534		0.0436	0.0354		0.0471
